Experimental data: a compilation of properties of binary mixtures (doi:10.1021/acs.jced.9b01103)
Some of these densities may be calculated back from excess volumes.

Assay: xn = mol fraction of the nth substance listed
Conditions: 96.7 kPa

CS(C)=O + CC(=O)[O-].CCCC[n+]1ccn(C)c1
x2 = 0
Conditions | mass density [kg/m3]
303.15 K | 1090.3
308.15 K | 1085.3
313.15 K | 1080.3
318.15 K | 1075.3
323.15 K | 1070.4
328.15 K | 1065.4
333.15 K | 1060.4
343.15 K | 1050.3
348.15 K | 1045.4

CC(=O)[O-].CCCC[n+]1ccn(C)c1 + CS(C)=O
mass density [kg/m3]
Conditions | 303.15 K | 308.15 K | 313.15 K | 318.15 K | 323.15 K | 328.15 K | 333.15 K | 338.15 K | 343.15 K | 348.15 K
x1 = 0.21 | 1075.7 | – | 1067.5 | – | 1059.4 | 1055.3 | 1051.2 | 1047.1 | – | 1038.9
x1 = 0.285 | 1072.2 | 1068.3 | 1064.5 | 1060.4 | – | – | – | 1045.1 | 1041.2 | 1037.4
x1 = 0.369 | 1068.2 | 1064.5 | 1060.9 | 1057.2 | 1053.6 | 1050 | 1046.3 | 1042.7 | – | 1035.5
x1 = 0.478 | 1062.9 | 1059.4 | 1055.9 | 1052.4 | 1048.9 | 1045.4 | 1042 | 1038.5 | 1035.1 | 1031.7
x1 = 0.606 | 1057.7 | 1054.4 | 1051.1 | – | 1044.4 | – | 1037.8 | 1034.5 | 1031.2 | 1027.9
x1 = 0.789 | 1051.8 | 1048.7 | 1045.5 | 1042.4 | 1039.2 | 1036.1 | 1033 | – | 1026.8 | 1023.7
x1 = 0.884 | 1049.1 | 1046 | 1043 | – | 1036.8 | 1033.8 | 1030.8 | 1027.8 | – | 1021.8
x1 = 1 | 1046.3 | 1043.3 | 1040.3 | 1037.4 | 1034.4 | 1031.4 | 1028.5 | 1025.6 | – | 1019.8
